# Experimental data from publication PMC4242493.
# This is one part of the list. The list includes weakly bound sequences.
# Biological target: MaxL homodimer (UniProt P61244)
# Assay: universal protein-binding microarray (PBM)
# Details: PBS-based mixture, 10 nM His-tagged protein dimer, 2% milk, 200 ng/uL BSA, 50 ng/uL salmon testes DNA, 0.02% TX-100; detection with Alexa 488 anti-His …; high values mean tight binding; most listed sequences are background and not binding sites; double strand, one strand shown
# Chain of UniProt P61244 (P61244 whole entry): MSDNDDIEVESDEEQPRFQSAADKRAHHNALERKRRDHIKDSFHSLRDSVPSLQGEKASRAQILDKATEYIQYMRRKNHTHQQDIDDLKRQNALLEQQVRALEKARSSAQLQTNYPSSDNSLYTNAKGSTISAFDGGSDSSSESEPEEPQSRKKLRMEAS
row,Sequence,binding signal (normalized occupancy)
1,AGCGTCAC,0.0737
2,ATAGGATC,0.0763
3,ATGTTACA,0.0803
4,CCCCTGCG,0.0735
5,GAACGACC,0.0745
6,GCAACACA,0.0795
7,CGATCTTC,0.072
8,CCCCACTC,0.0848
9,AGAACTAG,0.0659
10,ATCCTAAT,0.0837
11,AATTAGTC,0.0741
12,TCAACGGA,0.0741
13,TCGATCAA,0.0743
14,AGACAGTA,0.0793
15,CTCTTCGA,0.0653
16,AGGTAGGA,0.0722
17,CAACTTAA,0.0723
18,CTGACCTC,0.0774
19,GTATGGCA,0.0837
20,GACTTTGC,0.0705
21,AGACACAT,0.0849
22,ACCGTCGG,0.0667
23,AGGTTGGA,0.0747
24,GACCGGTA,0.0674
25,CCCAGAGC,0.0671

row,Sequence,binding signal (normalized occupancy)
1,CCATGCCG,0.1
2,AAGCGGTG,0.0684
3,GACACATA,0.0836
4,CTGCACAG,0.0707
5,GCCCCGGC,0.0656
6,GACGAACC,0.0703
7,AAGTCTAT,0.0784
8,ATGTAATG,0.086
9,GATAACCC,0.0805
10,AACCCCAC,0.0835
11,CCGGACGA,0.0699
12,CAATCAGC,0.0758
13,GGTTCCAA,0.0712
14,ACCATGAA,0.0755
15,AAGGTCCA,0.0736
16,CGATCCCC,0.0801
17,AAGCATTG,0.0783
18,TCAAACGA,0.0696
19,GGGTGAAC,0.0697
20,CAACAATA,0.0766
21,ACTTGTAC,0.0751
22,CATCTAGG,0.0769
23,AGTACGTC,0.0764
24,ATGGAGTG,0.0877
25,TAGAACAA,0.0771

row,Sequence,binding signal (normalized occupancy)
1,GCGTGTGA,0.0941
2,ATGACCGA,0.0788
3,GAACTTCC,0.0714
4,AAGTATGG,0.0812
5,CGTCGCTC,0.0705
6,CCTCACAA,0.0767
7,GCGTCGCA,0.0728
8,GAGCTGAA,0.0688
9,AACGGCGG,0.069
10,CTTGTCCC,0.0696
11,CAGACGAG,0.0711
12,AGTACTCA,0.0774
13,CCAAACGA,0.0726
14,AATCTTTC,0.0698
15,ATGCGCGG,0.0785
16,ACCATTTC,0.0718
17,AATGAGGG,0.0862
18,ACACCCAG,0.0748
19,ATTGCTAA,0.0711
20,CTGTTTTC,0.0699
21,GGTCGCCA,0.0726
22,AACGTTGG,0.0767
23,CCGCGTCA,0.0734
24,GTACTCCA,0.0734
25,GCATACAA,0.0812

row,Sequence,binding signal (normalized occupancy)
1,ATCAAGTG,0.0751
2,GTAACGCA,0.08
3,ATACTATG,0.0788
4,GAGTAGAA,0.0774
5,CAACACCA,0.0772
6,CCACCCGC,0.0829
7,ACTAGGAG,0.0741
8,CTAGCCGC,0.0663
9,CAAAGAAG,0.075
10,GCGGGTAA,0.0806
11,ATGGAGAC,0.081
12,GAACCTCA,0.0742
13,AACCATGA,0.0836
14,CCTTGCGA,0.0752
15,CAACCTCC,0.0759
16,CTGGTCGA,0.066
17,ACATACGT,0.082
18,CGCGGAAG,0.0733
19,CACTACGA,0.0746
20,GGAGAGAC,0.0742
21,ACACTAGG,0.0765
22,ACGGGTAT,0.0838
23,CTGAGAGA,0.0752
24,GGACAACC,0.0763
25,ACCTGGCT,0.0765

row,Sequence,binding signal (normalized occupancy)
1,AGAAAGAG,0.0717
2,CACCGGGC,0.0698
3,CCAAGGAG,0.0696
4,GCTAAGAC,0.0728
5,ATCCTATA,0.0822
6,AGAGCTCC,0.07
7,ACCTTTTA,0.07
8,CGAACTTC,0.0708
9,AAAGGCCC,0.0706
10,AGAACGTC,0.0701
11,CAACCAAA,0.0736
12,AACCGTCT,0.0686
13,AGTCGGCG,0.0676
14,CTGTCTCC,0.0717
15,ACGTACCG,0.0781
16,AGAGTGAT,0.0778
17,CATTATAC,0.086
18,AGACACCC,0.0783
19,ATGGCTGG,0.0791
20,GCTGGAAA,0.0759
21,GCTGCTAC,0.0729
22,CGGTCAGC,0.0733
23,AGTGGGAG,0.071
24,GTGTATTA,0.0819
25,AGTCCTGA,0.071

row,Sequence,binding signal (normalized occupancy)
1,ACCTCGCA,0.0766
2,CAATGAGG,0.0801
3,CGGGTATC,0.0789
4,CGCTGTAG,0.077
5,TCCACTAA,0.0724
6,CAGGGTCA,0.0745
7,CCTACCTA,0.078
8,TACAGAGA,0.0754
9,GTTAAGAA,0.0721
10,GATGATAA,0.078
11,ATCTCTCG,0.0796
12,AGGGAATA,0.078
13,CACTCATC,0.0765
14,CGTTTTAG,0.0783
15,ATGTGGGG,0.0878
16,CTCAGTGA,0.0714
17,GTGGCTCA,0.0812
18,CTTGAATA,0.0773
19,CAGTGAAA,0.068
20,AATGGCAA,0.0742
21,CGTCCAAA,0.0694
22,CTAAAGCC,0.0727
23,GACGAGGC,0.0707
24,CACCAACC,0.0772
25,TAACGACA,0.0739

row,Sequence,binding signal (normalized occupancy)
1,CACCTATA,0.0894
2,CGATCCTC,0.0759
3,CGTGTATC,0.092
4,GATGTTAC,0.0818
5,AACACAGC,0.0787
6,AGAGGTCA,0.0771
7,ACATAGCG,0.0747
8,ATCGAACG,0.0763
9,GATATAGA,0.0907
10,GGTTCCAC,0.069
11,AAGAGTCC,0.0718
12,ATTACAAG,0.0836
13,AGGCTTCG,0.0713
14,TCATGCAA,0.0829
15,CTTCTGTC,0.0709
16,AGTATGAT,0.0858
17,AACTCGTG,0.095
18,CCCCATAA,0.0834
19,AGAAGACT,0.0746
20,TATAGGAA,0.0783
21,AGTGTCAT,0.0822
22,TAGCGCGA,0.0679
23,CCAGTTTC,0.0689
24,GGAGTGAA,0.0707
25,TCCTGGAA,0.0696

row,Sequence,binding signal (normalized occupancy)
1,GCGCATCA,0.0745
2,AGCTTTGG,0.0687
3,CGCGTCTA,0.0736
4,CCCAACCG,0.0759
5,CCCACTGC,0.0759
6,CCCCGCCC,0.0799
7,ATATTCAC,0.0816
8,CAGAGCCC,0.069
9,CCGTGCGC,0.0813
10,ATACGTGC,0.0872
11,CCGAATCC,0.0756
12,ACCCGCGA,0.0721
13,CCGGCTTC,0.0669
14,CACCCGCC,0.0799
15,AAAATGCT,0.0764
16,AGTGAACA,0.0793
17,AGCATAAG,0.0813
18,CCGTCTGA,0.0685
19,CGCCATGC,0.0988
20,GGCGTTCA,0.0718
21,AGCACGGG,0.088
22,AATCGTAA,0.0771
23,TGAGATAA,0.0797
24,CGACTTAA,0.0729
25,CACCGACA,0.0792

row,Sequence,binding signal (normalized occupancy)
1,ACCTCTCA,0.0737
2,ATCCGATC,0.0835
3,CATCTTAG,0.0769
4,ATTGGTTA,0.0743
5,CCCCACAC,0.0866
6,CCCACCTC,0.0804
7,AGATACAT,0.0926
8,CCAACTAC,0.0736
9,GGGTCAGA,0.0771
10,CGTCAGGA,0.0702
11,CAGTTCCG,0.0661
12,GTCTATAA,0.0829
13,CAGGCAAA,0.0692
14,CTGCCCGA,0.0697
15,ACTAGTGC,0.0753
16,GCATGCTA,0.112
17,CACTGGTC,0.0687
18,ACCTATGA,0.0757
19,ATCTGGTG,0.0859
20,AGAACTTG,0.0725
21,AGCATGTA,0.106
22,GACACGAA,0.0712
23,GGCATCAC,0.0813
24,AAAGACAA,0.0741
25,AACTTGTG,0.077

row,Sequence,binding signal (normalized occupancy)
1,AAATGTCG,0.0766
2,GACCAGAC,0.0698
3,TTGGAAAA,0.0772
4,ACTCCCCC,0.0838
5,AGCTGTAA,0.077
6,CCTGGATA,0.0751
7,GTGTCTGA,0.0772
8,GGGTACTA,0.079
9,CGAGGTGC,0.0781
10,TAAGACGA,0.0749
11,AATAACCA,0.0799
12,CTAGATTA,0.0757
13,AGATGTAG,0.0802
14,AACGCATA,0.0871
15,CATCGTGA,0.0893
16,AAGCGCTC,0.0665
17,ACCCCGCG,0.0744
18,ACCGAAGC,0.0707
19,ACCTAAGG,0.0711
20,CCGTGAAA,0.0774
21,GCCCGACA,0.0707
22,AAGACCTG,0.07
23,GTACCACA,0.0798
24,ATTGGGTA,0.0756
25,CTCTTCTA,0.07

row,Sequence,binding signal (normalized occupancy)
1,AAGCAGCT,0.0654
2,TACATACA,0.092
3,CCAAAATA,0.0786
4,ATGAACAT,0.0758
5,CTCACTGA,0.0737
6,CTCATAGA,0.0761
7,CTAGAAAA,0.077
8,CTGCGGTA,0.0717
9,ACAAATTC,0.0766
10,AGAAGACG,0.0689
11,GAATGGGC,0.0791
12,CATTGTCA,0.0793
13,ACTGTTTC,0.0744
14,GACCGCCA,0.0723
15,ATAGTAGC,0.0718
16,ATTCCGAG,0.0707
17,AATGGAGT,0.0783
18,CCGGAAGG,0.0691
19,AAGTACTG,0.0763
20,ACATTGAC,0.0853
21,AGTGGCAT,0.0792
22,CACGGCAC,0.078
23,ATAAGTTC,0.0794
24,CCCATATA,0.0918
25,ACCTGTGC,0.0776

row,Sequence,binding signal (normalized occupancy)
1,CGCTATCA,0.0737
2,GACTCGGC,0.0662
3,AGTGTTGG,0.0818
4,GATTCCGA,0.0705
5,GTGCTAAC,0.0762
6,GATTGGTA,0.0774
7,AAATCCAA,0.0728
8,CCAGCCGA,0.0683
9,CGACTAAG,0.066
10,ACCCTCTA,0.0778
11,ATACTCAG,0.0743
12,CAGATGAC,0.0794
13,CCAGCATC,0.0746
14,TAGTGGCA,0.0787
15,ATCAGAGA,0.0723
16,TCCGTCCA,0.0751
17,CCCCAAGG,0.072
18,ACTCCGGC,0.0713
19,CCAATTTC,0.0752
20,AAAATACT,0.0789
21,CCGGGGAA,0.0703
22,TAGTGCGA,0.0731
23,CAGTCCCG,0.0662
24,CGGGGAGA,0.0753
25,AAGAATTA,0.0778

row,Sequence,binding signal (normalized occupancy)
1,TAAGTGAA,0.0774
2,CCCTGATC,0.0776
3,CTGTGCCC,0.0714
4,CAATTTAG,0.0769
5,ATCCAATA,0.0791
6,AACACCGT,0.0809
7,CTTATAAC,0.0821
8,CCTCGTCA,0.0756
9,AGAAAAAG,0.0673
10,AACCTTGA,0.0709
11,AAATAACC,0.0785
12,CCGGTACG,0.0719
13,CGATCGCC,0.0742
14,CAATTGTC,0.0746
15,AAGCCTAG,0.07
16,GACAGGGC,0.0708
17,CGTGTCCC,0.0839
18,AATCAATG,0.0761
19,AGCCAATA,0.0753
20,GACAGGTC,0.0743
21,CTTCTGAC,0.0775
22,TCAACACA,0.0821
23,ATCCACAA,0.077
24,ACATCTTA,0.0809
25,CCGTGACA,0.0807

row,Sequence,binding signal (normalized occupancy)
1,ACTTCACT,0.0769
2,GAGGTTTA,0.073
3,ACTCCATG,0.0808
4,GCTCAACC,0.0711
5,CTTTCCGA,0.0681
6,TGAGTGAA,0.0797
7,ACAGTAGC,0.0678
8,GGCGTGAA,0.0776
9,GACATAGA,0.0785
10,TCGTCGAA,0.0752
11,ATTGCATC,0.0806
12,CAAACCTC,0.0765
13,CTCCGAAG,0.0678
14,GGCTCGAC,0.0681
15,ATCGACAA,0.0792
16,GCCGCCAA,0.0717
17,CCCGTACG,0.0718
18,GCATTCCA,0.0799
19,GATTCACC,0.0757
